The supplement of paper PMC4604168 (melanoma cell lines)
This is one part of the list. Many values rest on one well or one pass, so single values are uncertain.

Legend:
Assay in all cases: cell count relative to DMSO control; melanoma cells; higher = more viable cells
Settings in all cases: library dose: standard library concentration; 72 h
G361 = system: G361
IPC-298 = system: IPC-298
IST-MEL1 = system: IST-MEL1
LB2518-MEL = system: LB2518-MEL
LOXIMVI = system: LOXIMVI
MEL-HO = system: MEL-HO
MZ2-MEL = system: MZ2-MEL
MeWo = system: MeWo
RPMI7951 = system: RPMI7951
RVH-421 = system: RVH-421
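Note: cells treated in 1,536-well plates, then fixed and DAPI-stained, with nuclei counted from automated high-throughput microscope images.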

Row | SMILES | cell count (G361) [%] | cell count (IPC-298) [%] | cell count (IST-MEL1) [%] | cell count (LB2518-MEL) [%] | cell count (LOXIMVI) [%] | cell count (MEL-HO) [%] | cell count (MZ2-MEL) [%] | cell count (MeWo) [%] | cell count (RPMI7951) [%] | cell count (RVH-421) [%]
1 | CCCS(=O)(=O)Nc1ccc(F)c(C(=O)c2c[nH]c3ncc(Cl)cc23)c1F + Cn1cc(/C=C2\C(=O)Nc3cccnc32)c2ccccc21 [GW441756] (first compound 0.4 µM, partner dose 2 µM) | 66.5 | 87.3 | 97.7 | 104 | 130 | 82.4 | 81.8 | 106 | 118 | 91.7
2 | NC1(c2ccc(-c3nc4ccn5c(=O)[nH]nc5c4cc3-c3ccccc3)cc2)CCC1 + C[C@@H]1CCN(C(=O)CC#N)C[C@@H]1N(C)c1ncnc2[nH]ccc12 [CP690550] (first compound 2 µM, partner dose 5 µM) | 77.9 | 98.4 | 139 | 85.5 | 90.3 | 84.5 | 108 | 76.3 | 67.8 | 84.5
3 | NC1(c2ccc(-c3nc4ccn5c(=O)[nH]nc5c4cc3-c3ccccc3)cc2)CCC1 + Cc1cc([N+](=O)[O-])ccc1NS(=O)(=O)c1cc(Cl)ccc1Cl [FH535] (first compound 2 µM, partner dose 5 µM) | 36.2 | 45.4 | 44.4 | 60.5 | 55.3 | 34.2 | 55.6 | 61.4 | 102 | 66
4 | CCCS(=O)(=O)Nc1ccc(F)c(C(=O)c2c[nH]c3ncc(Cl)cc23)c1F + COc1cc(Nc2ncc(F)c(Nc3ccc4c(n3)NC(=O)C(C)(C)O4)n2)cc(OC)c1OC [Tamatinib] (first compound 0.4 µM, partner dose 2 µM) | 56.8 | 73.1 | 24.3 | 83 | 8.9 | 70.7 | 78.4 | 76.2 | 23.2 | 7.25
5 | NC1(c2ccc(-c3nc4ccn5c(=O)[nH]nc5c4cc3-c3ccccc3)cc2)CCC1 + COc1cc(N2CCC(N3CCN(C)CC3)CC2)ccc1Nc1ncc(Cl)c(Nc2ccccc2S(=O)(=O)C(C)C)n1 [NVP-TAE684] (first compound 2 µM, partner dose 0.4 µM) | 66.9 | 77.2 | 70.5 | 73.5 | 72.3 | 58.7 | 83.1 | 65 | 50.3 | 81.4
6 | CCCS(=O)(=O)Nc1ccc(F)c(C(=O)c2c[nH]c3ncc(Cl)cc23)c1F + O=C(O)c1ccc(-c2c[nH]c3ncc(-c4ccccc4)cc23)cc1C1CCCC1 [GSK650394] (first compound 0.4 µM, partner dose 0.8 µM) | 55.3 | 69.8 | 61.3 | 78.4 | 64.9 | 62.3 | 72.9 | 95.3 | 76.6 | 68.3
7 | CN(c1ncccc1CNc1nc(Nc2ccc3c(c2)CC(=O)N3)ncc1C(F)(F)F)S(C)(=O)=O + Cn1cc(/C=C2\C(=O)Nc3cccnc32)c2ccccc21 [GW441756] (first compound 0.4 µM, partner dose 2 µM) | 70.9 | 87.3 | 82.1 | 73 | 86.3 | 84.1 | 66.1 | 94.9 | 51.9 | 87.2
8 | CS(=O)(=O)c1ccc(C(=O)Nc2ccc(Cl)c(-c3ccccn3)c2)c(Cl)c1 [vismodegib] + CN(c1ncccc1CNc1nc(Nc2ccc3c(c2)CC(=O)N3)ncc1C(F)(F)F)S(C)(=O)=O [PF562271] (first compound 5 µM, partner dose 0.4 µM) | 72.5 | 87.5 | 102 | 99.9 | 139 | 96.4 | 110 | 94.2 | 58.7 | 112
9 | NC1(c2ccc(-c3nc4ccn5c(=O)[nH]nc5c4cc3-c3ccccc3)cc2)CCC1 + CC(=O)c1c(C)c2cnc(Nc3ccc(N4CCNCC4)cn3)nc2n(C2CCCC2)c1=O [palbociclib] (first compound 2 µM, partner dose 0.2 µM) | 63.9 | 61.3 | 54.2 | 60.7 | 76.4 | 56.4 | 61.3 | 42 | 54.8 | 64.2
10 | NC1(c2ccc(-c3nc4ccn5c(=O)[nH]nc5c4cc3-c3ccccc3)cc2)CCC1 + NCC(=O)Nc1ccc(-n2nc(C(F)(F)F)cc2-c2ccc3c(ccc4ccccc43)c2)cc1 [OSU03012] (first compound 2 µM, partner dose 5 µM) | 5.92 | 56.7 | 81.2 | 117 | 92 | 76.7 | 117 | 86.9 | 76.9 | 88.8
11 | CS(=O)(=O)c1ccc(C(=O)Nc2ccc(Cl)c(-c3ccccn3)c2)c(Cl)c1 [vismodegib] + O=C(O)[C@@H]1[O][Sb](=[O])([O][Sb]2(=[O])[O][C@H]([C@H](O)CO)[C@H](O)[C@H](C(=O)O)[O]2)[O][C@H]([C@H](O)CO)[C@@H]1O [stibogluconate] (first compound 5 µM, partner dose 10 µM) | 95.8 | 83.7 | 109 | 106 | 74 | 109 | 109 | 80 | 106 | 119
12 | CS(=O)(=O)c1ccc(C(=O)Nc2ccc(Cl)c(-c3ccccn3)c2)c(Cl)c1 [vismodegib] + N#Cc1c(O)c2c(-c3ccc(-c4ccccc4O)cc3)csc2[nH]c1=O [A769662] (first compound 5 µM, partner dose 10 µM) | 88.3 | 90.7 | 95.1 | 105 | 116 | 94.1 | 97.7 | 89.5 | 100 | 101
13 | CS(=O)(=O)c1ccc(C(=O)Nc2ccc(Cl)c(-c3ccccn3)c2)c(Cl)c1 [vismodegib] + OCc1c[nH]c2ccccc12 [Indole-3-carbinol] (first compound 5 µM, partner dose 4 µM) | 93.3 | 88.9 | 100 | 92.9 | 101 | 111 | 92.2 | 92.5 | 107 | 162
14 | CN(c1ncccc1CNc1nc(Nc2ccc3c(c2)CC(=O)N3)ncc1C(F)(F)F)S(C)(=O)=O + NC1(c2ccc(-c3nc4ccn5c(=O)[nH]nc5c4cc3-c3ccccc3)cc2)CCC1 [MK2206] (first compound 0.4 µM, partner dose 2 µM) | 70.5 | 76 | 83.3 | 64.1 | 96.7 | 73.4 | 76.6 | 76.2 | 49.3 | 71.7
15 | CS(=O)(=O)c1ccc(C(=O)Nc2ccc(Cl)c(-c3ccccn3)c2)c(Cl)c1 [vismodegib] + NC1(c2ccc(-c3nc4ccn5c(=O)[nH]nc5c4cc3-c3ccccc3)cc2)CCC1 [MK2206] (first compound 5 µM, partner dose 2 µM) | 75.5 | 83.2 | 89.3 | 85.8 | 94.7 | 75.3 | 101 | 81.1 | 83.9 | 92.2
16 | CCCS(=O)(=O)Nc1ccc(F)c(C(=O)c2c[nH]c3ncc(Cl)cc23)c1F + OCCn1cc(-c2cnc3nnn(Cc4ccc5ncccc5c4)c3n2)cn1 [PF04217903] (first compound 0.4 µM, partner dose 5 µM) | 57.3 | 80.8 | 103 | 104 | 85.5 | 72.4 | 77.4 | 87.8 | 73.9 | 75.1
17 | CS(=O)(=O)c1ccc(C(=O)Nc2ccc(Cl)c(-c3ccccn3)c2)c(Cl)c1 [vismodegib] + CO[C@H]1C[C@@H]2CC[C@@H](C)[C@@](O)(O2)C(=O)C(=O)N2CCCC[C@H]2C(=O)O[C@H]([C@H](C)C[C@@H]2CC[C@@H](OCCO)[C@H](OC)C2)CC(=O)[C@H](C)/C=C(\C)[C@@H](O)[C@@H](OC)C(=O)[C@H](C)C[C@H](C)/C=C/C=C/C=C/1C [everolimus] (first compound 5 µM, partner dose 0.1 µM) | 66.3 | 64.8 | 87.5 | 61.5 | 72.7 | 60.7 | 71.4 | 75.9 | 55.7 | 188
18 | NC1(c2ccc(-c3nc4ccn5c(=O)[nH]nc5c4cc3-c3ccccc3)cc2)CCC1 + O=C(O)[C@@H]1[O][Sb](=[O])([O][Sb]2(=[O])[O][C@H]([C@H](O)CO)[C@H](O)[C@H](C(=O)O)[O]2)[O][C@H]([C@H](O)CO)[C@@H]1O [stibogluconate] (first compound 2 µM, partner dose 10 µM) | 124 | 92.4 | 97.6 | 102 | 109 | 88.1 | 116 | 74.1 | 84.5 | 99.1
19 | CS(=O)(=O)c1ccc(C(=O)Nc2ccc(Cl)c(-c3ccccn3)c2)c(Cl)c1 [vismodegib] + COCC[n+]1c2c(n(Cc3cnccn3)c1C)C(=O)c1ccccc1C2=O [YM155] (first compound 5 µM, partner dose 0.002 µM) | 87.2 | 73.8 | 43.2 | 55 | 66.4 | 103 | 57.2 | 46.4 | 48.4 | 99.8
20 | C=C(c1ccc(C(=O)O)cc1)c1cc2c(cc1C)C(C)(C)CCC2(C)C [Bexarotene] + Cn1c(Nc2ccc(C(F)(F)F)cc2)nc2cc(Oc3ccnc(-c4ncc(C(F)(F)F)[nH]4)c3)ccc21 [CHIR265] (first compound 10 µM, partner dose 0.4 µM) | 40 | 45.3 | 73.7 | 40.6 | 110 | 54.5 | 73 | 76.2 | 47.7 | 293
21 | CS(=O)(=O)c1ccc(C(=O)Nc2ccc(Cl)c(-c3ccccn3)c2)c(Cl)c1 [vismodegib] + CN(C)S(=O)(=O)c1ccc2c(c1)/C(=C/c1cc3c([nH]1)CCCC3)C(=O)N2 [SU6656] (first compound 5 µM, partner dose 2 µM) | 58.9 | 101 | 76.7 | 81.2 | 101 | 84.6 | 102 | 84.1 | 61.4 | 84.1
22 | CS(=O)(=O)c1ccc(C(=O)Nc2ccc(Cl)c(-c3ccccn3)c2)c(Cl)c1 [vismodegib] + C#Cc1cccc(Nc2ncnc3cc(OCCOC)c(OCCOC)cc23)c1 [erlotinib] (first compound 5 µM, partner dose 4 µM) | 70.9 | 66 | 79.6 | 60 | 84.9 | 75.4 | 68.9 | 69.6 | 56.8 | 69.6
